# Source: the supplement of paper PMC8728848
# The other results are listed elsewhere or left out.
# B1: Epa6 (Candida glabrata), Q6DTM7_CANGB (protein)
# chain: MGSSHHHHHHSSGLVPRGSHMKDDYSSSLSNNNLGWTDPTEFPLGCSPNVTTPKNGLSMELYSYDYLKSGSNPCWDAAYLDPNYPRTGYKSHRLLAKVENVAGNINFYYHAPMGCTSLFDTLPQAYNYRTPLTMTNFTMLLYGYFKPKVTGYHTFTISADDLLFVNFGAGNAFDCCKRESSADDFGNYQAYAVWGSQTAKDDLTVHLDAGLYYPIRIFFNNRDNDGALSLTLKTESDPNPVIDFSDYFYSFDDTKDGCPGLVSYDTS
# Legend:
# Assay in all cases: glycan array binding signal (z-score within array); higher = stronger binding
# Details in all cases: glycan notation: IUPAC condensed, linker removed
# [1] = biological target: Neu5Ac(a2-6)Gal(b1-4)GlcNAc(b1-2)Man(a1-3)[Man(a1-6)]Man(b1-4)GlcNAc(b1-4)GlcNAc
# Summary of the method: (§1)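 Glycan array data came from 3228 arrays in the Consortium for Functional Glycomics database, and only arrays with an available protein sequence were kept. Glycan names were put into IUPAC-condensed notation, and columns mapping to the same glycan were averaged. The binding signal is a within-array Z-score, averaged across arrays of one protein sequence run at different concentrations or buffers and across linkers. A negative Z-score can be read as non-binding.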
# [2] = biological target: Neu5Ac(a2-6)Gal(b1-4)GlcNAc(b1-2)Man(a1-3)[Neu5Ac(a2-3)Gal(b1-4)GlcNAc(b1-2)Man(a1-6)]Man(b1-4)GlcNAc(b1-4)GlcNAc
# Summary of the method: as §1
# [3] = biological target: Neu5Ac(a2-6)Gal(b1-4)GlcNAc(b1-2)Man(a1-3)[Neu5Ac(a2-6)Gal(b1-4)GlcNAc(b1-2)Man(a1-6)]Man(b1-4)GlcNAc(b1-4)GlcNAc
# Summary of the method: as §1
# [4] = biological target: Neu5Ac(a2-6)Gal(b1-4)GlcNAc(b1-2)Man(a1-3)[Neu5Ac(a2-6)Gal(b1-4)GlcNAc(b1-2)Man(a1-6)]Man(b1-4)GlcNAc(b1-4)[Fuc(a1-6)]GlcNAc
# Summary of the method: as §1
# [5] = biological target: Neu5Ac(a2-6)Gal(b1-4)GlcNAc(b1-2)Man(a1-6)Man(b1-4)GlcNAc(b1-4)GlcNAc
# Summary of the method: as §1
# [6] = biological target: Neu5Ac(a2-6)Gal(b1-4)GlcNAc(b1-2)Man(a1-6)[Gal(b1-4)GlcNAc(b1-2)Man(a1-3)]Man(b1-4)GlcNAc(b1-4)GlcNAc
# Summary of the method: as §1
# [7] = biological target: Neu5Ac(a2-6)Gal(b1-4)GlcNAc(b1-2)Man(a1-6)[GlcNAc(b1-2)Man(a1-3)]Man(b1-4)GlcNAc(b1-4)GlcNAc
# Summary of the method: as §1
# [8] = biological target: Neu5Ac(a2-6)Gal(b1-4)GlcNAc(b1-2)Man(a1-6)[Man(a1-3)]Man(b1-4)GlcNAc(b1-4)GlcNAc
# Summary of the method: as §1
# [9] = biological target: Neu5Ac(a2-6)Gal(b1-4)GlcNAc(b1-2)[Neu5Ac(a2-6)Gal(b1-4)GlcNAc(b1-4)]Man(a1-3)[GlcNAc(b1-4)][Neu5Ac(a2-6)Gal(b1-4)GlcNAc(b1-2)[Neu5Ac(a2-6)Gal(b1-4)GlcNAc(b1-6)]Man(a1-6)]Man(b1-4)GlcNAc(b1-4)GlcNAc
# Summary of the method: as §1
# [10] = biological target: Neu5Ac(a2-6)Gal(b1-4)GlcNAc(b1-2)[Neu5Ac(a2-6)Gal(b1-4)GlcNAc(b1-4)]Man(a1-3)[GlcNAc(b1-4)][Neu5Ac(a2-6)Gal(b1-4)GlcNAc(b1-4)Man(a1-6)]Man(b1-4)GlcNAc(b1-4)GlcNAc
# Summary of the method: as §1
# [11] = biological target: Neu5Ac(a2-6)Gal(b1-4)GlcNAc(b1-2)[Neu5Ac(a2-6)Gal(b1-4)GlcNAc(b1-6)]Man(a1-6)[Neu5Ac(a2-6)Gal(b1-4)GlcNAc(b1-2)Man(a1-3)][GlcNAc(b1-4)]Man(b1-4)GlcNAc(b1-4)GlcNAc
# Summary of the method: as §1
# [12] = biological target: Neu5Ac(a2-6)Gal(b1-4)GlcNAc(b1-3)Gal(b1-3)GlcNAc
# Summary of the method: as §1
# [13] = biological target: Neu5Ac(a2-6)Gal(b1-4)GlcNAc(b1-3)Gal(b1-4)GlcNAc
# Summary of the method: as §1
# [14] = biological target: Neu5Ac(a2-6)Gal(b1-4)GlcNAc(b1-3)Gal(b1-4)GlcNAc(b1-2)Man(a1-3)[Neu5Ac(a2-6)Gal(b1-4)GlcNAc(b1-3)Gal(b1-4)GlcNAc(b1-2)Man(a1-6)]GalNAc
# Summary of the method: as §1
# [15] = biological target: Neu5Ac(a2-6)Gal(b1-4)GlcNAc(b1-3)Gal(b1-4)GlcNAc(b1-3)Gal(b1-4)GlcNAc
# Summary of the method: as §1
# [16] = biological target: Neu5Ac(a2-6)Gal(b1-4)GlcNAc(b1-3)Gal(b1-4)GlcNAc(b1-3)Gal(b1-4)GlcNAc(b1-2)Man(a1-3)[Neu5Ac(a2-6)Gal(b1-4)GlcNAc(b1-3)Gal(b1-4)GlcNAc(b1-3)Gal(b1-4)GlcNAc(b1-2)Man(a1-6)]GalNAc
# Summary of the method: as §1
# [17] = biological target: Neu5Ac(a2-6)Gal(b1-4)GlcNAc(b1-3)Gal(b1-4)GlcNAc(b1-3)GalNAc
# Summary of the method: as §1
# [18] = biological target: Neu5Ac(a2-6)Gal(b1-4)GlcNAc(b1-3)Gal(b1-4)GlcNAc(b1-3)[Neu5Ac(a2-6)Gal(b1-4)GlcNAc(b1-3)Gal(b1-4)GlcNAc(b1-6)]GalNAc
# Summary of the method: as §1
# [19] = biological target: Neu5Ac(a2-6)Gal(b1-4)GlcNAc(b1-3)Gal(b1-4)GlcNAc(b1-6)[Gal(b1-3)]GalNAc
# Summary of the method: as §1
# [20] = biological target: Neu5Ac(a2-6)Gal(b1-4)GlcNAc(b1-3)Gal(b1-4)[Fuc(a1-3)]GlcNAc(b1-3)Gal(b1-4)[Fuc(a1-3)]GlcNAc
# Summary of the method: as §1
# [21] = biological target: Neu5Ac(a2-6)Gal(b1-4)GlcNAc(b1-3)GalNAc
# Summary of the method: as §1
# [22] = biological target: Neu5Ac(a2-6)Gal(b1-4)GlcNAc(b1-3)[Neu5Ac(a2-6)Gal(b1-4)GlcNAc(b1-6)]GalNAc
# Summary of the method: as §1
# [23] = biological target: Neu5Ac(a2-6)Gal(b1-4)GlcNAc(b1-6)GalNAc
# Summary of the method: as §1
# [24] = biological target: Neu5Ac(a2-6)Gal(b1-4)GlcNAc(b1-6)[Gal(b1-3)GlcNAc(b1-3)]Gal(b1-4)Glc
# Summary of the method: as §1
# [25] = biological target: Neu5Ac(a2-6)Gal(b1-4)GlcNAc(b1-6)[Gal(b1-3)]GalNAc
# Summary of the method: as §1
# [26] = biological target: Neu5Ac(a2-6)Gal(b1-4)GlcNAc6S
# Summary of the method: as §1
# Neu5Ac(a2-6)GalNAc = biological target: Neu5Ac(a2-6)GalNAc
# Summary of the method: as §1
# [27] = biological target: Neu5Ac(a2-6)GalNAc(b1-4)GlcNAc
# Summary of the method: as §1
# [28] = biological target: Neu5Ac(a2-6)GalNAc(b1-4)GlcNAc6S
# Summary of the method: as §1
# [29] = biological target: Neu5Ac(a2-6)GlcNAc(b1-4)GlcNAc
# Summary of the method: as §1
# [30] = biological target: Neu5Ac(a2-6)GlcNAc(b1-4)GlcNAc(b1-4)GlcNAc
# Summary of the method: as §1
binder,measurement,setting,value
B1,glycan array binding signal (z-score),[1],-0.332
same,glycan array binding signal (z-score),[2],-0.318
same,glycan array binding signal (z-score),[3],-0.286
same,glycan array binding signal (z-score),[4],-0.289
same,glycan array binding signal (z-score),[5],-0.309
same,glycan array binding signal (z-score),[6],-0.299
same,glycan array binding signal (z-score),[7],-0.319
same,glycan array binding signal (z-score),[8],-0.356
same,glycan array binding signal (z-score),[9],-0.311
same,glycan array binding signal (z-score),[10],-0.332
same,glycan array binding signal (z-score),[11],-0.33
same,glycan array binding signal (z-score),[12],-0.27
same,glycan array binding signal (z-score),[13],-0.287
same,glycan array binding signal (z-score),[14],-0.152
same,glycan array binding signal (z-score),[15],-0.312
same,glycan array binding signal (z-score),[16],0.033
same,glycan array binding signal (z-score),[17],-0.305
same,glycan array binding signal (z-score),[18],-0.266
same,glycan array binding signal (z-score),[19],0.25
same,glycan array binding signal (z-score),[20],-0.333
same,glycan array binding signal (z-score),[21],-0.245
same,glycan array binding signal (z-score),[22],-0.307
same,glycan array binding signal (z-score),[23],-0.318
same,glycan array binding signal (z-score),[24],-0.251
same,glycan array binding signal (z-score),[25],0.113
same,glycan array binding signal (z-score),[26],-0.323
same,glycan array binding signal (z-score),Neu5Ac(a2-6)GalNAc,-0.35
same,glycan array binding signal (z-score),[27],-0.352
same,glycan array binding signal (z-score),[28],-0.286
same,glycan array binding signal (z-score),[29],-0.338
same,glycan array binding signal (z-score),[30],-0.314
